From the RNAGym collection of RNA variant scans (doi:10.1093/nar/gkz1192)
The source gives no read counts; variants with many changes may rest on few reads.

B1: CPEB3 Ribozyme (parent)
chain: UAACAGGGGGCCACAGCAGAAGCGUUCACGUCGCAGCCCCUGUCAGAUUCUGGUGAAUCUGCGAAUUCUGCUGUAUAUCUC

Variants of: B1
Assay: self-cleavage, relative activity (ratio to wild type); higher = more cleavage; in vitro, sequencing
Procedure, shortened: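 For each CPEB3 ribozyme variant, relative activity is its cleaved/total read fraction divided by the unmutated ribozyme's. Barcoded error-prone PCR libraries were transcribed by T7 RNA polymerase (5 hours, 37°C) and held in DNase I for 15 min before an EDTA stop, with cleavage occurring throughout. Template-switching reverse transcription and Illumina sequencing were used to read the RNAs. A 5-read minimum applied, and results are the mean of three batches.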

| Variant | self-cleavage |
| --- | --- |
| G16C U41C U54A | 0.16 |
| G16C U48A A75U | 0.06 |
| G16C U49C A65G | 0.15 |
| G16C U49C U80C | 0.29 |
| G16U A18C U80A | 0.21 |
| G16U A20G G33A A35U U80G | 0.12 |
| G16U A20G G52A | 0.46 |
| G16U A20G U26G U76A U80C | 0.07 |
| G16U A20U A56U | 0.1 |
| G16U A28C A64G | 0.16 |
| G16U A47G A77U C79A | 0.35 |
| G16U C17G A35C C71U U78C | 0.06 |
| G16U C23U U25C C32U U60A A65U U78C | 0.04 |
| G16U C38A U66C U80A | 0.15 |
| G16U G36C U43G U51C | 0.13 |
| G16U U25C A56U U60A U78C | 0.09 |
| G16U U25C A57G A64U | 0.08 |
| G16U U25C U41C U66C | 0.06 |
| G16U U26A C40U A57G | 0.05 |
| G16U U31C A35G U49G | 0.12 |
| G16U U31C A47G | 0.18 |

| Variant | self-cleavage |
| --- | --- |
| G16U U41C G52A U69G | 0.22 |
| G16U U51A C62U U67C U74C | 0.14 |
| C17A A21G U54G | 0.19 |
| C17A A35C U49A U58A | 0.14 |
| C17A A47G U48C | 0.06 |
| C17A C23A A28G A35U | 0.26 |
| C17A U25C A28U A35G C40U A56G | 0.11 |
| C17A U25C A28U A35G C40U U41C | 0.06 |
| C17A U25C A35U U54A | 0.13 |
| C17A U25C U41G U54C U60A A64G U67C | 0.05 |
| C17A U26G A35G | 0.07 |
| C17A U41C A45U C50U A64U U78C U80C | 0.07 |
| C17A U41C U76C A77G | 0.35 |
| C17A U43C A56U U80C | 0.05 |
| C17A U49A U58A U78C | 0.12 |
| C17A U49A U69A | 0.16 |
| C17A U51C U60C | 0.12 |
| C17G A18G A35G U41A C44G G53U | 0.17 |
| C17G A18U U49C U72A | 0.09 |
| C17G A20G A47G U60A | 0.02 |
| C17G A20G U26C U43C G53A | 0 |

| Variant | self-cleavage |
| --- | --- |
| C17G A28U A45U A47G | 0.17 |
| C17G A28U U49C | 0.05 |
| C17G A35G C59U A75U U80C | 0.36 |
| C17G A64U U69C | 0.12 |
| C17G C38A U43C | 0.08 |
| C17G C40A U49C U54C | 0.2 |
| C17G G19A A47G A56G U60C G73A | 0.1 |
| C17G G24A U60C U78C | 0.28 |
| C17G G52A U58A U74A | 0.46 |
| C17G U26C G52C | 0.24 |
| C17G U26C U41C U72A | 0.24 |
| C17G U41A A47G | 0.32 |
| C17G U41C A45G U69C U74A U80C | 0.09 |
| C17G U41C A65C | 0.18 |
| C17U A18C U26A U67A U76C U80A | 0.02 |
| C17U A18G G63U | 0.4 |
| C17U A20G A21G G33A U41C A75G | 0.15 |
| C17U A20G G73A A77G C81U | 1.01 |
| C17U A20G U26A U31C U66C U69A | 0.08 |
| C17U A20G U26C U58C U76C | 0.06 |
| C17U A20U U26C U60C A64G U66C | 0.14 |

| Variant | self-cleavage |
| --- | --- |
| C17U A21G G24C A35U | 0.2 |
| C17U A28G A35C U43C A77U | 0.1 |
| C17U A28G U43C A77U U78A | 0.27 |
| C17U A28G U43C C81U | 0.15 |
| C17U A28U U69A U78C | 0.24 |
| C17U A35G U80C | 1.19 |
| C17U A47G U67C A77U | 0.22 |
| C17U A47G U72A | 0.27 |
| C17U A75G U80C | 0.41 |
| C17U C40A A64G U72G | 0.1 |
| C17U C62U U76A | 0.15 |
| C17U G19U A45U A47G U60A | 0.08 |
| C17U G24C U31A A56U | 0.22 |
| C17U U25A A28C U69A U80C | 0.04 |
| C17U U25A A45G A56U A75C | 0.05 |
| C17U U25A C34A U60A U67C U74A U80C | 0.05 |
| C17U U25C U43C A77G | 0.09 |
| C17U U25C U58C | 0.15 |
| C17U U26C U31A | 0.08 |
| C17U U26C U69C C81U | 0.06 |
| C17U U31C U43A A65C U69C | 0.21 |
